# Reference: PubChem BioAssay AID1347428 (National Center for Advancing Translational Sciences (NCATS), 2020)
# Hit rate of the full screen: of about 91,000 compounds, about 290 (0.32%) were called active. The shares of active, inactive and inconclusive entries below differ from those in the screen. The call rests on the fitted dose curve; in most records, active means well fitted inhibition curve with a large enough effect; inconclusive means small, poorly fitted or top-dose-only effect; inactive means no such curve, though single readings can be large or run the other way. Where the call is inconclusive, the potency comes from a doubtful curve fit.
# Target: Single-stranded DNA cytosine deaminase (Homo sapiens) (UniProt Q9GZX7)
# Experiment: Primary qHTS assay for inhibitors of Activation Induced Cytidine Deaminase (AID): AID signal; further: nearly all actives have a fitted effect of over 25% in size
# Conditions: AID deamination FRET fluorescence, UDG-coupled, 4 h; series mostly up to 115 µM
# Potency means the concentration at half of the fitted maximal effect; tags describe the fitted curve by direction and shape.
# UniProt Q9GZX7, sequence (Q9GZX7 whole entry, looked up): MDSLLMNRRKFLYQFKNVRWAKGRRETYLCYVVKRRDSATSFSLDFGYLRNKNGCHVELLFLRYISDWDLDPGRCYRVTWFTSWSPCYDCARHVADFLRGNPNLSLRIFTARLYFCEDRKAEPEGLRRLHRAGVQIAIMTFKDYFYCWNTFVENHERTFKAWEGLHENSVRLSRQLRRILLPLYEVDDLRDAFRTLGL
row,Structure (SMILES),Potency
1,O=C(c1ccc2c(c1)N(Cc1ccccc1F)C(=O)c1ccccc1S2=O)N1CCN(c2ccccc2)CC1 (stereo not given),"inconclusive: 31.6 µM [inhibitor, partial curve, poor fit]"
2,COc1cccc(CNC(=O)N2CCN(Cc3ccc(Cl)s3)CC2)c1,inactive
3,Cc1ccc(-n2[nH]c(CSc3nnnn3-c3ccccc3)cc2=O)cc1,inactive
4,CCN(C(=O)c1cc2c(s1)-c1ccccc1OC2)c1cc(Cl)ccc1OC,"inconclusive: 25.1 µM [inhibitor, full curve, poor fit]"
5,COc1ccc(OCC(=O)N(Cc2ccc(-c3ccc(F)cc3)o2)C2CCS(=O)(=O)C2)cc1 (stereo not given),"inconclusive: 35.5 µM [inhibitor, partial curve, poor fit]"
6,C=CCn1c(C)cc(C(=O)CN2C(=O)NC(Cc3c[nH]c4ccccc34)C2=O)c1C (stereo not given),inactive
7,CC(C)c1cccc(C(C)C)c1NC(=O)/C=C/c1cccc(F)c1,inactive
8,C=Cc1ccc(CN2C(=O)N(c3cccc(Cl)c3)S(=O)(=O)c3ccccc32)cc1,"inconclusive: 12.6 µM [inhibitor, full curve]"
9,CC(Sc1nc(CN2CCOCC2)nc2ccccc12)C(=O)c1ccccc1 (stereo not given),inactive
10,COc1ccccc1C(=O)Nc1nc(-c2ccccc2)ns1,"inconclusive: 2.82 µM [inhibitor, full curve, poor fit]"
11,COc1ccccc1C(=O)NCCn1cc(SCc2ccccc2Cl)c2ccccc21,"inconclusive: 79.4 µM [inhibitor, partial curve, poor fit]"
12,COc1ccc(NC(=O)c2sc3nc(C)c(C(=O)Nc4ccc(Cl)cc4)c(-c4ccc(Br)cc4)c3c2N)cc1,"inconclusive: 39.8 µM [inhibitor, single point]"
13,c1ccc2cc(OCCSc3ccc4ccccc4n3)ccc2c1,inactive
14,CN1C(=O)Cc2cc(S(=O)(=O)CCC(=O)N3CCN(c4ccccc4F)CC3)ccc21,inactive
15,CCc1ccc(NC(=O)N2CC(C)Oc3ccc(C)cc32)cc1 (stereo not given),"inconclusive: 56.2 µM [inhibitor, partial curve, poor fit]"
16,CC(C)(C)OC(=O)N1CCC(c2c(C(=O)NCCN3CCC(Cc4ccccc4)CC3)cnn2-c2ccccc2)CC1,"inconclusive: 50.1 µM [inhibitor, partial curve, poor fit]"
17,CCCCOc1ccc(C(=O)N(Cc2ccc(C(C)C)cc2)C2CCS(=O)(=O)C2)cc1 (stereo not given),active: 25.1 µM
18,COc1ccc(OCC(=O)NCC(c2ccc(Cl)cc2)N2CCCCC2)cc1 (stereo not given),"inconclusive: 56.2 µM [inhibitor, partial curve, poor fit]"
19,COc1ccc(NC(=O)c2c(-c3ccccc3)c(-c3ccccc3)nn(C)c2=O)c(OC)c1,"inconclusive: 79.4 µM [inhibitor, partial curve, poor fit]"
20,CC(=O)NCCCCCC(=O)NCC(C)(c1ccccc1)c1ccccc1,inactive
21,CCc1c(C)sc(NC(=O)/C=C/c2ccccc2)c1C#N,inactive
22,Cc1cc(C)c(NC(=O)c2cc3c(=O)n4ccccc4nc3n2C)c(C)c1,"inconclusive: 89.1 µM [inhibitor, single point]"

row,Structure (SMILES),Potency
1,CCCCN1CCc2nc(N3CCN(c4ncccn4)CC3)ncc2C1,"inconclusive: 100 µM [inhibitor, single point]"
2,CCn1cc(C(=O)N2CCN(c3cc(C)ccc3C)CC2)c(=O)c2cc(S(=O)(=O)N(C)C3CCCCC3)ccc21,"inconclusive: 39.8 µM [inhibitor, full curve, poor fit]"
3,COc1cccc(CNC(=O)CCCN2C(=O)CSc3c2c(C)nn3-c2ccccc2)c1,"inconclusive: 56.2 µM [inhibitor, single point]"
4,COc1ccc2cc(C(=O)NCC3(N(C)C)CCCCCC3)[nH]c2c1,inactive
5,O=C(CC1C(=O)OCCN1Cc1ccccc1)Nc1cccc(C(F)(F)F)c1 (stereo not given),inactive
6,CN1CCN(c2nc3c(S(=O)(=O)c4ccc(Br)cc4)nnn3c3ccsc23)CC1,"inconclusive: 56.2 µM [inhibitor, partial curve, poor fit]"
7,CCNC(=O)C(C)NC(=O)C1(c2cccc(C)c2)CCCC1 (stereo not given),inactive
8,CCCOc1ccc(-c2nonc2NC(=O)c2oc3ccc(C)cc3c2C)cc1OCCC,"inconclusive: 14.1 µM [inhibitor, full curve, poor fit]"
9,COc1cc(NC(=O)CSc2nc(-c3ccc(C)cc3)nc3c2Cc2ccccc2O3)cc(OC)c1,inactive
10,COc1cccc(/C=N/O)c1OC,inactive
11,Cc1cc(C)cc(OCCCn2c(CCNC(=O)C3CCCCC3)nc3ccccc32)c1,"inconclusive: 3.55 µM [inhibitor, partial curve, poor fit]"
12,CCCc1ccc(S(=O)(=O)N2CCC(Oc3ccc(-n4cnnn4)cc3)CC2)cc1,"inconclusive: 25.1 µM [inhibitor, single point]"
13,CCc1ccccc1NC(=O)CSc1nc(-c2ccccc2OC)nc2c1Cc1c(CO)cnc(C)c1O2,"inconclusive: 79.4 µM [inhibitor, partial curve]"
14,CCCSc1ncc(Cl)c(C(=O)Nc2nc3ccc(OCC)cc3s2)n1,"inconclusive: 79.4 µM [inhibitor, single point]"
15,Cc1nc2nc(SCC(=O)NCCc3ccc(Cl)cc3)nn2c(C)c1Cc1ccccc1,"inconclusive: 20 µM [inhibitor, full curve]"
16,COc1ccc(/C=C(\C#N)C(=O)Nc2ccccc2C(=O)O)c(OC)c1,"inconclusive: 14.1 µM [inhibitor, partial curve, poor fit]"
17,Cc1cc(C)nc(-n2nc(C)c3c2N(Cc2ccccc2)C(=O)CC3c2ccccc2)n1 (stereo not given),inactive
18,O=C(c1ccc2c(c1)N(Cc1ccc(Cl)cc1)C(=O)c1ccccc1S2(=O)=O)N1CCCCC1,"inconclusive: 31.6 µM [inhibitor, partial curve, poor fit]"
19,COc1ccc(NC(=O)CSc2nc3c(oc4ccccc43)c(=O)n2-c2ccc(C)c(C)c2)cc1,"inconclusive: 2.82 µM [inhibitor, full curve, poor fit]"
20,CCn1nccc1-c1cc(C(=O)O)c2cccc(C)c2n1,inactive
21,COC(=O)c1ccc(CNCc2ccco2)o1,inactive
22,CCc1ccc(CNC(=O)CN2C(=O)c3cccnc3Oc3ccc(C)cc32)cc1,"inconclusive: 35.5 µM [inhibitor, partial curve, poor fit]"

row,Structure (SMILES),Potency
1,Cc1c(C)n(C)c2ccc(C(=O)N3CCN(c4ccccc4)CC3)cc12,"inconclusive: 79.4 µM [inhibitor, partial curve, poor fit]"
2,CSc1ncc(Cl)c(C(=O)N(Cc2ccc(N(C)C)cc2)Cc2ccco2)n1,"inconclusive: 25.1 µM [inhibitor, full curve, poor fit]"
3,Cc1ccc(N2C(=O)c3[nH]nc(-c4ccc(Cl)cc4)c3C2c2ccc(F)cc2)cc1 (stereo not given),"inconclusive: 56.2 µM [inhibitor, partial curve, poor fit]"
4,COc1cccc(C(=O)Nc2ccc(-c3cn4cccnc4n3)cc2)c1OC,"inconclusive: 89.1 µM [inhibitor, single point]"
5,S=C(N/N=C/C(c1ccccc1)c1ccccc1)Nc1ccccc1Cl,inactive
6,CN1CCN(c2ccc3cc(S(=O)(=O)N4CCCC4)ccc3n2)CC1,inactive
7,COc1ccc(-c2nc(C)c(CCNC(=O)Cc3ccc(F)cc3)s2)cc1OC,"inconclusive: 100 µM [inhibitor, single point]"
8,COc1ccccc1NC(=O)Cc1c(C(=O)O)[nH]c2ccc(Cl)cc12,"inconclusive: 50.1 µM [inhibitor, partial curve, poor fit]"
9,CC1Cc2ccccc2N1S(=O)(=O)c1cccc(Br)c1 (stereo not given),"inconclusive: 39.8 µM [inhibitor, partial curve, poor fit]"
10,CCCCOc1ccc(CNC(=O)C2CCN(c3nnc(-n4cccc4CNc4ccc(C)cc4)s3)CC2)cc1,"inconclusive: 35.5 µM [inhibitor, single point]"
11,Cc1cc(C)n2nc(SCC(=O)Nc3ccccc3)nc2n1,inactive
12,CCCCNC(=O)CSc1nc2nc(C)c(Cc3ccccc3C)c(C)n2n1,"inconclusive: 31.6 µM [inhibitor, partial curve, poor fit]"
13,Cc1ccccc1-c1nc(CS(=O)(=O)CC(=O)N2CCN(c3ccccc3)CC2)c(C)o1,"inconclusive: 89.1 µM [inhibitor, partial curve, poor fit]"
14,CCOc1cccc(CC(=O)N2CCc3c([nH]c4ccccc34)C2c2ccc(F)cc2)c1OCC (stereo not given),"inconclusive: 100 µM [inhibitor, single point]"
15,CCOc1ccc(N(CC)S(=O)(=O)N2CCCC(C(=O)NCc3ccccc3Cl)C2)cc1 (stereo not given),"inconclusive: 39.8 µM [inhibitor, partial curve, poor fit]"
16,Cc1ccc2c(COC(=O)CCc3ccc4c(c3)OCO4)cc(=O)oc2c1,inactive
17,CS(=O)(=O)N1CCCC(C(=O)Nc2ccc(SC3CCCC3)cc2)C1 (stereo not given),inactive
18,N=c1n(CCN2CCCCC2)c2ccccc2n1CC(O)COc1ccc(Cl)cc1Cl (stereo not given),"inconclusive: 50.1 µM [inhibitor, partial curve, poor fit]"
19,Cc1cc(NC(=O)N(C)CCc2c(C)nn(C)c2C)ccc1Br,inactive
20,COc1cc(C2C(C(=O)Nc3ccc(C)cc3C)=C(C)Nc3nc4ccccc4n32)cc(OC)c1OC (stereo not given),"inconclusive: 28.2 µM [inhibitor, single point]"
21,CCOC(=O)c1cc(-c2ccc(C)cc2)n(CCC(=O)Nc2ccc(C(C)C)cc2)c1C,"inconclusive: 14.1 µM [inhibitor, full curve, poor fit]"
